# Data: paper PMC9911399, “Two distinct binding modes provide the RNA-binding protein RbFox with extraordinary sequence specificity”
# Substitutions are numbered along the chain they refer to; changes in the protein carry UniProt numbers. Some of the results follow.
# B1: ACACGAU (DNA:RNA)
# RNA: GGGAGACCGGAAUUCAGAUUGUCCACACGAUUUAAAUCCCGUCGUAGCCACCA
# DNA 1: CAATCTGAATTCCGGTCTCCC
# DNA 2: TGGTGGCTACGACGGGATT
# B2: ACGAUCC (DNA:RNA)
# RNA: B1 RNA with A27G, C28A, G29U, A30C, U31C
# DNA 1: CAATCTGAATTCCGGTCTCCC
# DNA 2: TGGTGGCTACGACGGGATT
# B3: GUUUAGC (DNA:RNA)
# RNA: GGGAGACCGGAAUUCAGAUUGUCCGUUUAGCUUAAAUCCCGUCGUAGCCACCA
# DNA 1: CAATCTGAATTCCGGTCTCCC
# DNA 2: TGGTGGCTACGACGGGATT
# B4: GAUGAAU (DNA:RNA)
# RNA: B3 RNA with U26A, U28G, G30A, C31U
# DNA 1: CAATCTGAATTCCGGTCTCCC
# DNA 2: TGGTGGCTACGACGGGATT
# B5: ACUGAGC (DNA:RNA)
# RNA: B3 RNA with G25A, U26C, U28G
# DNA 1: CAATCTGAATTCCGGTCTCCC
# DNA 2: TGGTGGCTACGACGGGATT
# B6: UUGGGCA (DNA:RNA)
# RNA: B1 RNA with A25U, C26U, A27G, C28G, A30C, U31A
# DNA 1: CAATCTGAATTCCGGTCTCCC
# DNA 2: TGGTGGCTACGACGGGATT
# B7: UCGACCC (DNA:RNA)
# RNA: B1 RNA with A25U, A27G, C28A, G29C, A30C, U31C
# DNA 1: CAATCTGAATTCCGGTCTCCC
# DNA 2: TGGTGGCTACGACGGGATT
# B8: UCACGAU (DNA:RNA)
# RNA: B1 RNA with A25U
# DNA 1: CAATCTGAATTCCGGTCTCCC
# DNA 2: TGGTGGCTACGACGGGATT
# B9: GAUCUGG (DNA:RNA)
# RNA: B3 RNA with U26A, U28C, A29U, C31G
# DNA 1: CAATCTGAATTCCGGTCTCCC
# DNA 2: TGGTGGCTACGACGGGATT
# B10: AGUGGCA (DNA:RNA)
# RNA: B1 RNA with C26G, A27U, C28G, A30C, U31A
# DNA 1: CAATCTGAATTCCGGTCTCCC
# DNA 2: TGGTGGCTACGACGGGATT
# B11: GUGAGGA (DNA:RNA)
# RNA: B3 RNA with U27G, U28A, A29G, C31A
# DNA 1: CAATCTGAATTCCGGTCTCCC
# DNA 2: TGGTGGCTACGACGGGATT
# B12: UGGUGAG (DNA:RNA)
# RNA: B1 RNA with A25U, C26G, A27G, C28U, U31G
# DNA 1: CAATCTGAATTCCGGTCTCCC
# DNA 2: TGGTGGCTACGACGGGATT
# B13: UCGCGGC (DNA:RNA)
# RNA: B1 RNA with A25U, A27G, A30G, U31C
# DNA 1: CAATCTGAATTCCGGTCTCCC
# DNA 2: TGGTGGCTACGACGGGATT
# B14: GUUAAAG (DNA:RNA)
# RNA: B3 RNA with U28A, G30A, C31G
# DNA 1: CAATCTGAATTCCGGTCTCCC
# DNA 2: TGGTGGCTACGACGGGATT
# B15: UAGACGU (DNA:RNA)
# RNA: B1 RNA with A25U, C26A, A27G, C28A, G29C, A30G
# DNA 1: CAATCTGAATTCCGGTCTCCC
# DNA 2: TGGTGGCTACGACGGGATT
# B16: GAUGAUU (DNA:RNA)
# RNA: B3 RNA with U26A, U28G, G30U, C31U
# DNA 1: CAATCTGAATTCCGGTCTCCC
# DNA 2: TGGTGGCTACGACGGGATT
# B17: AGGAGGG (DNA:RNA)
# RNA: B1 RNA with C26G, A27G, C28A, A30G, U31G
# DNA 1: CAATCTGAATTCCGGTCTCCC
# DNA 2: TGGTGGCTACGACGGGATT
# B18: GCCCAAA (DNA:RNA)
# RNA: B1 RNA with A25G, A27C, G29A, U31A
# DNA 1: CAATCTGAATTCCGGTCTCCC
# DNA 2: TGGTGGCTACGACGGGATT
# B19: AAGAUGC (DNA:RNA)
# RNA: B3 RNA with G25A, U26A, U27G, U28A, A29U
# DNA 1: CAATCTGAATTCCGGTCTCCC
# DNA 2: TGGTGGCTACGACGGGATT
# B20: UCCUACU (DNA:RNA)
# RNA: B1 RNA with A25U, A27C, C28U, G29A, A30C
# DNA 1: CAATCTGAATTCCGGTCTCCC
# DNA 2: TGGTGGCTACGACGGGATT
# Target: T1, RBFOX1 RRM RbFoxmut (Fox-RRM*) (Homo sapiens, UniProt Q9NWB1 109-208, R118D;E147R;N151S;E152T)
# T1 sequence: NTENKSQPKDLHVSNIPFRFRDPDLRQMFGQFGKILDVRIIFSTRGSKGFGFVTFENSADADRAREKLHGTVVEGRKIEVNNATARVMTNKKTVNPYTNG
# Experiment: EMSA; HiTS-Eq, 1 nM pool, 10 min; buffer printed only for the single-RNA assays: 10 mM Tris pH 7.5, 150 mM NaCl, 3.4 mM EDTA, 0.001% NP-40, 30 C
# Conditions: tags: His6 N-terminal (pET28a); label: 5' 32P
# Method in brief: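 A pool of RNA with 7 randomized nucleotides, 5′-radiolabelled and with DNA-annealed flanks, was equilibrated at 1 nM for 10 min in 50 µL with purified RbFox RRM, wild type or mutant, across increasing protein concentrations. Free RNA was separated by 8% native PAGE, excised, reverse-transcribed, barcoded by PCR and sequenced. Relative association constants were obtained from read-count changes of each RNA species versus the control reaction and normalised to the cognate motif.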
row,Binder,binding signal
1,B1,0.0623 KA relative to UGCAUGU
2,B2,0.0727 KA relative to UGCAUGU
3,B3,0.114 KA relative to UGCAUGU
4,B4,0.0674 KA relative to UGCAUGU
5,B5,0.0856 KA relative to UGCAUGU
6,B6,0.0791 KA relative to UGCAUGU
7,B7,0.0544 KA relative to UGCAUGU
8,B8,0.0725 KA relative to UGCAUGU
9,B9,0.0866 KA relative to UGCAUGU
10,B10,0.144 KA relative to UGCAUGU
11,B11,0.0646 KA relative to UGCAUGU
12,B12,0.128 KA relative to UGCAUGU
13,B13,0.0965 KA relative to UGCAUGU
14,B14,0.0986 KA relative to UGCAUGU
15,B15,0.064 KA relative to UGCAUGU
16,B16,0.084 KA relative to UGCAUGU
17,B17,0.0885 KA relative to UGCAUGU
18,B18,0.0845 KA relative to UGCAUGU
19,B19,0.0736 KA relative to UGCAUGU
20,B20,0.0965 KA relative to UGCAUGU
